Source: PubChem BioAssay AID1745853 (National Center for Advancing Translational Sciences (NCATS), 2022)
This is one part of the list. The main result of the screen is listed elsewhere. These columns were measured beside it and carry no call.

Key:
Experiment in all cases: Primary Screen for Target Class Profiling of Small Molecule Inhibitors of Methyltransferases
[1] = target: Glycine N-methyltransferase (Homo sapiens) (UniProt Q14749); details: purified enzyme, MTase-Glo SAH luminescence; measured here: GNMT inhibition; at 40 µM; stronger effect = lower value
In short: (§1)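 Each enzyme was assayed with SAM and its substrate. SAH formation detected by MTase-Glo luminescence; single-point 40 uM screen[…].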

[2] = target: Guanidinoacetate N-methyltransferase (Homo sapiens) (UniProt Q14353); details: purified enzyme, MTase-Glo SAH luminescence; measured here: GAMT inhibition; at 40 µM; stronger effect = lower value
In short: as §1

[3] = target: Histamine N-methyltransferase (Homo sapiens) (UniProt P50135); details: purified enzyme, MTase-Glo SAH luminescence; measured here: HNMT inhibition; at 40 µM; stronger effect = lower value
In short: as §1

[4] = target: Nicotinamide N-methyltransferase (Homo sapiens) (UniProt P40261); details: purified enzyme, MTase-Glo SAH luminescence; measured here: NNMT inhibition; at 40 µM; stronger effect = lower value
In short: as §1

[5] = target: Phenylethanolamine N-methyltransferase (Homo sapiens) (UniProt P11086); details: purified enzyme, MTase-Glo SAH luminescence; measured here: PNMT inhibition; at 40 µM; stronger effect = lower value
In short: as §1
On the % scale 0 is the no-effect control and ±100 the full control effect.

Compound | activity change, negative = inhibition [1] [%] | activity change, negative = inhibition [2] [%] | activity change, negative = inhibition [3] [%] | activity change, negative = inhibition [4] [%] | activity change, negative = inhibition [5] [%]
O=C(CN1CCC2(CC1)NC(=O)CC2C(=O)O)NCc1ccccn1 (stereo unspecified) | -1.41 | -1.82 | -0.626 | -0.85 | 1.36
C1COC(NC(C2CC2)C2CC2)=N1 | -6.79 | 3.21 | 1.53 | -8.89 | 3.6
COc1ccc(CN2CCN(CCCSc3cc(C(C)(C)C)c(O)c(C(C)(C)C)c3)CC2)c(OC)c1OC | 5.82 | 10.1 | 8.18 | -7.02 | -0.542
Cc1ccc([C@H]2C[C@@H](O)[C@@H](O)[C@@H]2NS(C)(=O)=O)cc1 | -3.31 | -7.71 | -1.46 | -10.6 | -7.62
CCOc1ccccc1NC(=O)N1CCn2c(C)ccc2C1CC (stereo unspecified) | -11.1 | 0 | -9.55 | -6.57 | -6.85
O=C(NCc1cccnc1)C1CCC(=O)N1C1CCN(C(=O)Cc2ccccc2F)CC1 (stereo unspecified) | -1.04 | -1.85 | 1.5 | -8.44 | -2.96
CC(C)N1CC(C(=O)N2CCC(c3ccccc3)CC2)NC1=O (stereo unspecified) | -2.03 | 2.69 | 2.49 | -3.26 | 10.8
O=C(NC1CCCN(c2cc(N3CCCC3)ncn2)C1)c1ccco1 (stereo unspecified) | -5.94 | -4.41 | -4.36 | -7.26 | -0.49
COc1ccc(-c2cc(N3CCCN(C(=O)CCCc4ccccc4)CC3)n[nH]2)cc1 | -9.19 | -5.93 | -4.49 | -18 | -9.39
CCOC(=O)c1cc2n(n1)CC(C)(C(=O)NCc1ccccc1)N(Cc1ccccc1Br)C2=O (stereo unspecified) | 2.83 | 0 | 7.44 | 6.23 | 4.72
CC(C)CN1C(=O)COC[C@@H]1[C@H](O)c1ccc(NC(=O)c2ccc3c(c2)OCO3)cc1 | -5.23 | -4.36 | 1.32 | -5.98 | -13.3
CN(Cc1cccc(C(F)(F)F)c1)C(=O)CC1CCCC1 | -3.08 | -7.12 | -3.4 | -22 | -13.3
CN(Cc1nccs1)c1ncnc2ccc(-c3ccc4c(c3)OCO4)cc12 |  | -55.9 |  | -66.8 | -69.5
CC[C@H](Nc1ncnc2nc[nH]c12)c1nc2cccc(F)c2c(=O)n1-c1ccccc1 | -13.1 | -12.5 | -0.104 | -17.9 | -4.94
COc1cccc(-c2ccc(NC(=O)C3CCCN3C(=O)CNC(C)=O)cc2)c1 (stereo unspecified) | -0.87 | -0.42 | -0.095 | -5.93 | -5.61
O=C1CC(c2ccccc2)N(C(=O)CNC(=O)c2ccncc2)CCCCCN1 (stereo unspecified) | -0.454 | -4.59 | 2.09 | -5.02 | 0.973
CC(C)(C)c1cc2n(n1)CC(C)(C(=O)NC1CCCCCC1)N(Cc1cccc(F)c1)C2=O (stereo unspecified) | 0.281 | 2.72 | 1.9 | -6.42 | 0.921
O=C(O[C@H]1[C@@H]2C=CO[C@@H](O[C@@H]3O[C@H](CO)[C@@H](O)[C@H](O)[C@H]3O)[C@@H]2[C@@]2(CO)O[C@@H]12)c1ccccc1 | -0.874 | -5.47 | 4.05 | -13.5 | -7.53
CCn1c(=O)n(CC)c2cc(S(=O)(=O)N3CCN(Cc4ccc5c(c4)OCO5)CC3)ccc21 | -3.6 | 2.91 | -4.92 | -11.1 | -0.461
O[C@]12CCNC[C@H]1CN(Cc1cccc(N3CCOCC3)c1)CC2 | -3.98 | -6.15 | -2.46 | -9.8 | -8.75

Compound | activity change, negative = inhibition [1] [%] | activity change, negative = inhibition [2] [%] | activity change, negative = inhibition [3] [%] | activity change, negative = inhibition [4] [%] | activity change, negative = inhibition [5] [%]
O=C(NC[C@H]1O[C@@H](CC(=O)N2CCc3ccccc32)[C@H](O)[C@@H]1O)C1CC1 | -4.81 | 0.269 | -26.2 | -7.45 | -9.24
CCCn1c(=O)c2ccc(C(=O)NC3CCCC3)cc2n2c(=O)n(CC(=O)c3cc(C)ccc3C)nc12 | 7.2 | 0 | 0.386 | 4 | 5.86
CCOC(=O)c1cc2n(n1)CC(C)(C(=O)NCc1ccc(F)cc1)N(c1ccccc1C)C2=O (stereo unspecified) | 1.1 | 0 | 2.2 | -2.53 | 1.08
COc1ccc(OC)c(CCNC(=O)CCc2nnc3n(Cc4ccc(F)cc4)c(=O)c4ccccc4n23)c1 | -1.16 | 0 | -3.27 | -14 | 1.25
Cc1ccc(CCN2C(=O)c3cc4ccccc4n3CC2(C)C(=O)NCc2ccccc2)cc1 (stereo unspecified) | -2.65 | -0.295 | -5.52 | -7.08 | -8.33
COc1ccc(OC)c2c1cc1n2CC(C)(C(=O)NC2CCCCC2)N(Cc2ccccc2)C1=O (stereo unspecified) | -8.5 | -3.44 | -7.82 | -13.8 | -12.6
CC(C)NC(=O)c1ccc2c(=O)n(C(C)C)c3nn(CC(=O)Nc4ccccc4)c(=O)n3c2c1 | 1.33 | 2.86 | 2.55 | -7.3 | -0.972
COc1ccccc1NC(=O)N1CCn2c(C)ccc2C1C(C)C (stereo unspecified) | 14.7 | 0.917 | 5.35 | -3.88 | 9.15
COCCC1(N(C)C)CCN(S(=O)(=O)c2cccc(OC)c2)CC1 | 3.77 | 1.63 | 10.1 | -3.95 | 6.67
COc1ccc2[nH]c(C(=O)N3CCCCCNC(=O)[C@@H]4CCC[C@@H]43)cc2c1 | -3.03 | 0.664 | 2.04 | 0.575 | 10.9
C=CCN(CC=C)CC(O)Cn1c2c(c3cc(C)ccc31)CCCC2 (stereo unspecified) | 3.24 | 0.721 | 7.65 | 7.9 | 1.34
Cc1ccc(CN2C(=O)c3cc(-c4ccccc4)nn3CC2(C)C(=O)NCc2ccccc2)o1 (stereo unspecified) | -2.39 | 1.48 | 1.9 | -8.22 | -3.26
CC(C)C1=NOC2(CCN(C3COC3)CC2)C1 | -4.21 | -3.59 | -1.77 | -7.85 | -5.66
C=C[C@H]1[C@H](O[C@@H]2O[C@H](CO)[C@@H](O)[C@H](O)[C@H]2O)OC=C2C(=O)OCC[C@]21O | -0.222 | -8.35 | 6 | -20.7 | 1.51
COc1ccc(NS(=O)(=O)c2cc3c(cc2Cl)n(C)c(=O)n3C)cc1OC | 1.22 | 1.36 | 10.3 | 2.72 | 2.94
CC1(C(=O)NC2CCCCCCC2)Cn2c(ccc2-c2ccco2)C(=O)N1Cc1ccc(Cl)cc1 (stereo unspecified) | -9.88 | 1.21 | -6.32 | -14.1 | -7.27
CCCN1C(=O)c2c(C(=O)NCCc3ccccc3)ncn2CC1(C)C(=O)NCCC(C)C (stereo unspecified) | 4.04 | 1.28 | 7.35 | 8.44 | 11.3
Cc1ccc(NC(=O)Cn2c(=O)oc3cc(S(=O)(=O)N4CCCC4)ccc32)cc1C | -1.31 | 0 | 6.93 | 9.41 | -13.2
CNC(=O)Cn1nc(C2CCN(C(=O)c3ccccc3F)CC2)c2c1CCOC2 | -0.922 | -2.33 | 0.89 | -8.75 | -2.91
Cc1c(CNC(=O)c2ccccc2C2CCNC2)oc2ccccc12 (stereo unspecified) | -5.08 | -7.08 | -14.3 | -11.7 | -28.6

Compound | activity change, negative = inhibition [1] [%] | activity change, negative = inhibition [2] [%] | activity change, negative = inhibition [3] [%] | activity change, negative = inhibition [4] [%] | activity change, negative = inhibition [5] [%]
COc1ccc2cc3n(c2c1)CC(C)(C(=O)NC1CCCCCC1)N(CCN1CCN(C)CC1)C3=O (stereo unspecified) | 9.29 | 0 | 10.3 | 11.6 | 2.79
Cc1nn(C)c(COc2ccc(N3CCN(S(=O)(=O)N(C)C)CC3)cc2)c1-c1cccc2c(CCCOc3cccc4ccccc34)c(C(=O)O)n(CCN3CCOCC3)c12 | 6.83 | 9.24 | 7.78 | -4.7 | 3.49
COc1ccc(OC)c(CN2C(=O)c3cc4ccccc4n3CC2(C)C(=O)NCc2ccccc2)c1 (stereo unspecified) | -1.31 | 2.81 | -3.71 | 3.82 | -6.26
Cc1ccc(CN2CCOCCNC(=O)[C@H]3CCCC[C@H]32)o1 | -5.73 | -2.63 | -0.035 | -6.9 | 10.5
CCc1ccccc1NC(=O)Cn1nc2n(C)c(=O)c3ccc(C(=O)NC(C)CC)cc3n2c1=O (stereo unspecified) | 6.45 | 7.05 | 11.3 | -1.76 | 4.31
C[C@H]1CC[C@@]2(OC1)O[C@H]1CC3[C@@H]4CC[C@@H]5C[C@@H](O[C@@H]6O[C@H](CO)[C@@H](O[C@@H]7O[C@H](CO[C@@H]8OC[C@@H](O)[C@H](O)[C@H]8O)[C@@H](O[C@@H]8O[C@H](CO)[C@H](O)[C@H](O)[C@H]8O)[C@H](O)[C@H]7O)[C@H](O)[C@H]6O)CC[C@]5(C)C4CC[C@]3(C)[C@H]1[C@@H]2C (stereo partly specified) | -1.93 | -2.84 | 2.98 | -4.76 | 4.15
COc1ccnc2[nH]cc(C(=O)C(=O)N3CCN(C(=O)c4ccccc4)C[C@H]3C)c12 |  | -27.5 |  | -28.8 | -5.55
C=C1[C@@H](C)[C@H]2[C@H](Cc3c[nH]c4ccccc34)NC(=O)[C@]23C(=O)/C=C/C(=O)[C@H](O)/C(C)=C\[C@@H](C)C/C=C/[C@H]3[C@@H]1O | 3.85 | 6.03 | 5.81 | -8.83 | 5.66
O=C1CN(Cc2ccccc2F)S(=O)(=O)c2ccccc2N1Cc1ccc(F)cc1 | -5.59 | 0 | 3.48 | -11.8 | -10.6
Fc1ccc(Nc2nc(-c3ccccc3F)no2)cc1 | -10.4 | -1.94 | -3.8 | -18.8 | -7.39
CN(CC(=O)N[C@H]1CCOC[C@H]1C1CCOCC1)Cc1ccncc1 | -1.79 | -2.16 | 1.32 | -2.46 | -0.561
COc1ccc(CCNS(=O)(=O)c2ccc3oc(=O)c4ncn(C)c4c3c2)cc1OC | -2.98 | 0 | 4.18 | 9.39 | -3.41
CCC(C)NC(=O)c1ccc2c(=O)n(CC(C)C)c3nnc(SCC(=O)NC(C)(C)C)n3c2c1 (stereo unspecified) | 7.18 | 1.84 | 12.6 | 4.33 | 7.01
CN(C)CC1(O)CCC2(CCN(C(=O)c3nccc4ccccc34)CC2)CC1 | -1.43 | -4.28 | -3 | -4.77 | -9.43
CC(=O)NCC(=O)NC1CC(C)(C)Cc2nc(N(C)Cc3ccccc3)ncc21 (stereo unspecified) | -2.77 | -3.64 | -1.89 | -8.22 | -2.8
NCc1ccc(Oc2ncnc3ccccc23)cc1 | -5.88 | 0.794 | -7.24 | -1.17 | -2.81
O=C(OC1C[C@H]2CC[C@@H](C1)[N+]21CCCC1)C(O)(c1ccccc1)c1ccccc1 (stereo partly specified) | -2.55 | 0.078 | -0.257 | -14.5 | 1.65
CCOC(=O)c1cc2n(n1)CC(C)(C(=O)NC1CCCCC1)N(c1ccc(NC(C)=O)cc1)C2=O (stereo unspecified) | 4.34 | 1.71 | 3.34 | 9.03 | 3.6
